# Data taken from article PMC12280212.
# A number of entries come with more than one value. The other results are left out here. An entry can have further records. Some entries list several cross-links; each record is another pair of residues.
# Experiments:
# Test in all cases: cross-linking mass spectrometry
# Details in all cases: DSSO, in cells
# PDIA6 = PDIA6 (UniProt Q15084)
# SERPINH1 = SERPINH1 (UniProt P50454)
# H4C1 = H4C1 (UniProt P62805)
# CALR = CALR (UniProt P27797)
# YWHAG = YWHAG (UniProt P61981)
# HSP90B1 = HSP90B1 (UniProt P14625)
# PPIB = PPIB (UniProt P23284)
# NUCB1 = NUCB1 (UniProt Q02818)
# Sequence of UniProt Q02818 (Q02818 whole entry): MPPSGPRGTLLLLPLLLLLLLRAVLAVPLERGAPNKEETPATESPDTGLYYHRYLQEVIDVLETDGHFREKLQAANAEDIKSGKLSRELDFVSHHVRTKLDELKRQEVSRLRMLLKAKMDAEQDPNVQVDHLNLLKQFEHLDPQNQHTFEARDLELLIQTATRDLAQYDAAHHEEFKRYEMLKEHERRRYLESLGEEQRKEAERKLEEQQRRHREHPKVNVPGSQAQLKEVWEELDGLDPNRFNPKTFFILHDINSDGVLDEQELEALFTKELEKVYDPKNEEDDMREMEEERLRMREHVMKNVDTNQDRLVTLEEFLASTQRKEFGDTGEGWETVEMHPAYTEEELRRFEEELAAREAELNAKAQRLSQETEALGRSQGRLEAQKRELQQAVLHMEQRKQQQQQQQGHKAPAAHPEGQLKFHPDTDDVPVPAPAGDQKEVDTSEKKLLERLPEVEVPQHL
# Sequence of UniProt P27797 (P27797 whole entry): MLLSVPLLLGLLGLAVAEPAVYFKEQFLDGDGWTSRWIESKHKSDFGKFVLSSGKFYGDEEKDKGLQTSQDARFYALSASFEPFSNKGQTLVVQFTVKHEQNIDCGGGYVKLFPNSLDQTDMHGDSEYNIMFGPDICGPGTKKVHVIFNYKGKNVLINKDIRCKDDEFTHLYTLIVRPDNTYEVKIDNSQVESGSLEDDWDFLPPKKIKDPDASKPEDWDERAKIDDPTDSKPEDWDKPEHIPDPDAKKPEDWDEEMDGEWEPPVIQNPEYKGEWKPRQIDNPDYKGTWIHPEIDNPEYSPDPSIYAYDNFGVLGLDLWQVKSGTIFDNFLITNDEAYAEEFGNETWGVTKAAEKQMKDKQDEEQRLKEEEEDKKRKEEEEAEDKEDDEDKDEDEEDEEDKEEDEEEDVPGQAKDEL
# Sequence of UniProt P23284 (P23284 whole entry): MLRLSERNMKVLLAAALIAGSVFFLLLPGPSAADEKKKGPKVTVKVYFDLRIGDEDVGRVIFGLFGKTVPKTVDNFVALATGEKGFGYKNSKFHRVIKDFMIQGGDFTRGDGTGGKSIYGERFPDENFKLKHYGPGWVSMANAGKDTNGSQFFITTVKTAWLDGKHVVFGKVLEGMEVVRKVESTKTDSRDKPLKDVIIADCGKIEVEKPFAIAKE
# Sequence of PDIA4 (P13667 whole entry): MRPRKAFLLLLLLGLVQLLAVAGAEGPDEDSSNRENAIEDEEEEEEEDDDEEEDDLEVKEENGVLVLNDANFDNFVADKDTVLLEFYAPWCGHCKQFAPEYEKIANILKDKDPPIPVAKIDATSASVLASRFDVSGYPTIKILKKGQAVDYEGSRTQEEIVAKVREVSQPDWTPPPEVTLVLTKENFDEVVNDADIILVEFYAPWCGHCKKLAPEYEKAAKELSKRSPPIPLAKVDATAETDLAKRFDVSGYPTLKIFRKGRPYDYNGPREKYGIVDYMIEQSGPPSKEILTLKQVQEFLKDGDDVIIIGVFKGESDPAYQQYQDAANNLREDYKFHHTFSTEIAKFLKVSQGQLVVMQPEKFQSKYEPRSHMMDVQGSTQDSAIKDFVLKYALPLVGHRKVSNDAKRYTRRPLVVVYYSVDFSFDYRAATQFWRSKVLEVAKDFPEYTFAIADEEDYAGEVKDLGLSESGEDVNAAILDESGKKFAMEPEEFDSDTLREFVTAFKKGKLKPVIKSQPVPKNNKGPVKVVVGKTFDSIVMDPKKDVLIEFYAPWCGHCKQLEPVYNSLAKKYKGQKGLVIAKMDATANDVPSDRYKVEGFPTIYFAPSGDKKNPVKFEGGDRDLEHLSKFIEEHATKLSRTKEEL
# Sequence of ITGB1 (P05556 whole entry): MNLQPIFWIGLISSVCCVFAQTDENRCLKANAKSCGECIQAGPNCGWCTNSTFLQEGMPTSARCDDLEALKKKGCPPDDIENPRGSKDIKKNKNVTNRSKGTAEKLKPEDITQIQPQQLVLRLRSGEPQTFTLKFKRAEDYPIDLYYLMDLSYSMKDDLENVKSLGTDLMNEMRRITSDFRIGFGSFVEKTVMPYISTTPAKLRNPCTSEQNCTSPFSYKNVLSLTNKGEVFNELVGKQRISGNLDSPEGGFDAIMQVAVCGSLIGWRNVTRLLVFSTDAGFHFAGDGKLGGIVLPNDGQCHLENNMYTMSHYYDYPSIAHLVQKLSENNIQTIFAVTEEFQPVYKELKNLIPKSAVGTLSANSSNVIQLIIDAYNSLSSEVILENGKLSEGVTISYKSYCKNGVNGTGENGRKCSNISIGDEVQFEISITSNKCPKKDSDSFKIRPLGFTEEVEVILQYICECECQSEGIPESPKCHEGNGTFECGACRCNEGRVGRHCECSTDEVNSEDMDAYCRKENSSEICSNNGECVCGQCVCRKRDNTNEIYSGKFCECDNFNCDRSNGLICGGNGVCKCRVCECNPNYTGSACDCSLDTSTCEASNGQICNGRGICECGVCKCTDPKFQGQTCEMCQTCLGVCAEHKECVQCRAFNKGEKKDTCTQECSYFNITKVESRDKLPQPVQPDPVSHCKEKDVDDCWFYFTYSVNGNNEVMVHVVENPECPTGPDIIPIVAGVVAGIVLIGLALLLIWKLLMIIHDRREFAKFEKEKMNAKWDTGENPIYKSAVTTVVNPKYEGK
# Sequence of UniProt P14625 (P14625 whole entry): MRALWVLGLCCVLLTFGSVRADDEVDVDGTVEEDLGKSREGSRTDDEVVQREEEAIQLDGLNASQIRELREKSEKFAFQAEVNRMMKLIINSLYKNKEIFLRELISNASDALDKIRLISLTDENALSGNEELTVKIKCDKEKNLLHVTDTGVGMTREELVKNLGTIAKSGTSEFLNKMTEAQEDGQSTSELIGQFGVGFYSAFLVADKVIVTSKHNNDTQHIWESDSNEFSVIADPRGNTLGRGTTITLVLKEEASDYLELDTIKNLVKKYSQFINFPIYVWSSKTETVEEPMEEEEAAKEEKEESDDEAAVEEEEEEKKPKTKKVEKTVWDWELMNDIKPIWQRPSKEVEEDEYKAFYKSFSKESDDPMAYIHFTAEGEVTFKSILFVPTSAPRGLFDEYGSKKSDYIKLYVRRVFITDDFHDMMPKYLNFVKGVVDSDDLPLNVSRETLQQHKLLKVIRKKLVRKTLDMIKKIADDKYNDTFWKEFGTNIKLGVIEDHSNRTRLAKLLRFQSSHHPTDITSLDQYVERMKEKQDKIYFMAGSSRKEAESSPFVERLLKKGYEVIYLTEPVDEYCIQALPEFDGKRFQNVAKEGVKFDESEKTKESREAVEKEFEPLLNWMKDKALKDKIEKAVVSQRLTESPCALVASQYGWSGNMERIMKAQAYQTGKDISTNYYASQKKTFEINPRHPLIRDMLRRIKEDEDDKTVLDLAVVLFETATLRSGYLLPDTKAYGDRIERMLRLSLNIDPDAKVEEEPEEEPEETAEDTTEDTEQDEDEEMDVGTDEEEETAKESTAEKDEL
# Sequence of PDIA3 (P30101 whole entry): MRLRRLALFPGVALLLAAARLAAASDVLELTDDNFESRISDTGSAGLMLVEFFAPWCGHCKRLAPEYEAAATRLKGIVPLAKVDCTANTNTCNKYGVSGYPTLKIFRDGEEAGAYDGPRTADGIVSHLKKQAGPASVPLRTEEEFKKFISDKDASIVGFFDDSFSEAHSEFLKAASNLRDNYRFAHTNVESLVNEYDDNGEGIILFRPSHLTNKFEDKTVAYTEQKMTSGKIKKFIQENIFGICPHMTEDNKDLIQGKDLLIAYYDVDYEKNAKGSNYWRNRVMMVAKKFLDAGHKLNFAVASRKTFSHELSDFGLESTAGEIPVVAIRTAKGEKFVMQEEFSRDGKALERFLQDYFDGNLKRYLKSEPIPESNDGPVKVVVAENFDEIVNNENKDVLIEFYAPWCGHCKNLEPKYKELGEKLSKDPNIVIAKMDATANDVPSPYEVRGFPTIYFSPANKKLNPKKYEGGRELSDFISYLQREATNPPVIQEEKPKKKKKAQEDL
# Sequence of YWHAQ (P27348 whole entry): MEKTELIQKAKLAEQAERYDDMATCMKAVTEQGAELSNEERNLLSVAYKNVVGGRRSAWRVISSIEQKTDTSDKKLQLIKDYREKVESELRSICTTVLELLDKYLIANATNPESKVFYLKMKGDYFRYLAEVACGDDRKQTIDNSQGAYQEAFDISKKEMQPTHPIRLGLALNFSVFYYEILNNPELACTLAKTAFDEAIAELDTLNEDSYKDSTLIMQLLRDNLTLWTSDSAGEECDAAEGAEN
# Sequence of TMED10 (P49755 whole entry): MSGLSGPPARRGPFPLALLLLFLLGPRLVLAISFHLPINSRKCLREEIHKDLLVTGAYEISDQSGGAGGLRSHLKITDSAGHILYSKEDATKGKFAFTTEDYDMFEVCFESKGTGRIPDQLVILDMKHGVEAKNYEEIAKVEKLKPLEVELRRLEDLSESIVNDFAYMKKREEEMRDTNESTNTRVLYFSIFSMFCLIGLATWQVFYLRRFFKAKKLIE
# Sequence of UniProt Q15084 (Q15084 whole entry): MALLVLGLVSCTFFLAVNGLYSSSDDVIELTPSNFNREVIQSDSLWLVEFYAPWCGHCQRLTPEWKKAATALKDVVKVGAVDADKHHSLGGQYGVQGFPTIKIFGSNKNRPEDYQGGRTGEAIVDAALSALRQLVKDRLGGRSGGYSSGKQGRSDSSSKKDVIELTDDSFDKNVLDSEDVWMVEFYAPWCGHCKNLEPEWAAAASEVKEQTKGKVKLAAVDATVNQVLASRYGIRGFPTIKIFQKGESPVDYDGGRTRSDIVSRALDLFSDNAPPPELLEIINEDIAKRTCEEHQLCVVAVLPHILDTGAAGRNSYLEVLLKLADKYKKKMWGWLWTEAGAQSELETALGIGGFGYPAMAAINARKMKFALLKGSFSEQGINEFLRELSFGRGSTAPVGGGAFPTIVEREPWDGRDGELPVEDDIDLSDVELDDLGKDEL
substance,measurement,setting,value
"PDIA3, P30101",cross-linked residues,PDIA6,K332 - K150 and K362 - K150
same,cross-linked residues,SERPINH1,K332 - K190 and K362 - K334
"H1-5, P16401",cross-linked residues,H4C1,K49 - K9 and K78 - K9 and K140 - K9 and K168 - K9
"ITGB1, P05556",cross-linked residues,CALR,K87 - K153 and K100 - K209 and K238 - K374
"HMGA1, P17096",cross-linked residues,H4C1,K15 - K9 and K46 - K9 and K55 - K9
"YWHAQ, P27348",cross-linked residues,YWHAG,K74 - M1 and K85 - K10
"PDIA4, P13667",cross-linked residues,CALR,K245 - K360 and K366 - K374 and K391 - K360 and K637 - K360
same,cross-linked residues,HSP90B1,K103 - K597 and K103 - K633 and K245 - K547 and K245 - K597 and K294 - K142 and K366 - K161 and K366 - K348 and K437 - K348 and K509 - K348 and K570 - K603 and K582 - K597
same,cross-linked residues,PPIB,K111 - K165 and K145 - K116 and K211 - K84 and K211 - K186 and K245 - K92 and K245 - K116 and K245 - K165 and K294 - K116 and K366 - K116 and K407 - K186 and K437 - K67 and K570 - K116
"TMED10, P49755",cross-linked residues,NUCB1,K140 - K280 and K145 - K71
